Reference: PubChem BioAssay AID602340 (Broad Institute, 2012)
“And” between values parts separate entries of the source, which are not always exact repeats. Equal entries are not always repeated. About 2,600 (0.79%) of roughly 330,000 compounds were called active. The inconclusive results got no clear call from the source; some entries with a clear call stand among them for comparison.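 How the source made its calls: active means mean ATP rescue above about 67%, or every replicate alone reaching that limit (limit read from the data, passing the limit was not always enough); inconclusive means no clear call, values can overlap the other calls; inactive means mean under the limit and some replicate under it.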

Assay: suppressors of statin myotoxicity in C2C12 myotubes, primary screen, cell-based, single point, plate reader (AID 602340);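 further: myotubes were challenged with 10 µM simvastatin during compound exposure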
Conditions: C2C12 myotubes + simvastatin, ATP luminescence, 48 h; at 7.49 µM; active compounds read high; scaled: DMSO 0, geranylgeraniol control 100

Structure (SMILES) | rescue of ATP level
C[C@@H]1CN([C@H](C)CO)C(=O)Cc2cc(NC(=O)CCCCCC(=O)Nc3ccccc3N)ccc2O[C@@H]1CN(C)Cc1ccccc1 | inconclusive: 65.8%
CCNC(=O)C1CC(=O)N(Cc2ccc3c(c2)OCO3)C(=Nc2ccc(F)cc2)S1 (stereo not drawn) | inconclusive: 70.8%
Cc1ccc(-c2cc(C(=O)NCc3cn(C)nc3C)c3cc(Br)ccc3n2)cc1 | inconclusive: 94.3%
CCSc1nnc(NC(=O)c2c(-c3ccccc3Cl)noc2C)s1 | active: 126%
Cc1nnc(N2C(=O)C(O)=C(C(=O)c3ccco3)C2c2ccc(C(C)(C)C)cc2)s1 (stereo not drawn) | active: 117%
CC(/C=C1\SC(=S)N(NC(=O)c2ccncc2)C1=O)=C\c1ccccc1 | inactive: -7.76%
C[C@@H]1CN([C@H](C)CO)C(=O)c2cc(C3=CCCCC3)cnc2O[C@H]1CN(C)C(=O)Nc1cccc(F)c1 | inconclusive: 76.8%
CCN(CC)C(=O)Nc1cnc2ccccc2c1 | inactive: -2.7%
O=C1CN(C(=O)c2c(F)cccc2F)C(c2ccccc2)c2cc(Br)ccc2N1 (stereo not drawn) | inconclusive: 44.7%
CCC(=O)NS(=O)(=O)c1cccnc1Nc1ccc(Cl)cc1 | inconclusive: 65.5%
CCCc1c(C(=O)N/N=C/c2ccoc2)nnn1-c1nonc1N | inactive: -1.68%
Cc1noc(C)c1NC(=O)Nc1ccc2c(c1)CC(=O)N([C@H](C)CO)C[C@@H](C)[C@@H](CN(C)Cc1ccc(Cl)c(Cl)c1)O2 | inconclusive: 83.5%
CCOCCCNC(=O)c1cc(Nc2ccc(OC)cc2OC)nc2ccccc12 | inconclusive: 2.14%
COc1ccc(NC(=O)N(C)C[C@@H]2Oc3ccc(NC(=O)Cn4cnnn4)cc3C(=O)N([C@H](C)CO)C[C@H]2C)cc1 | inconclusive: 77.8%
COc1ccc(-c2ccc3c(c2)[C@@H]2[C@@H](CCN2C(=O)c2ccc4c(c2)OCO4)[C@@H](CO)N3)cc1 | inconclusive: 67.3%
NC(=O)c1nsc(C(=O)N(c2ccc(Cl)cc2)C(C(=O)NCC2CCCO2)c2cccs2)c1N (stereo not drawn) | inconclusive: 5.6%
Cc1nc2ccccn2c1-c1csc(NCc2ccco2)n1 | active: 94.2%
CC(C)NC(=O)N(C)C[C@@H]1Oc2ncc(C#CC3CCCCC3)cc2C(=O)N([C@H](C)CO)C[C@H]1C | inactive: 25.8%
O=C(Nc1nnc(Cc2ccccc2)s1)Nc1ccccc1F | inactive: -4.02%
CC(C)c1ccc(CNc2nc3nc4c(c(=O)n3[nH]2)CCC4)cc1 | active: 111%
CSc1ccc(CCNS(=O)(=O)c2csc(C(N)=O)c2)cc1 | active: 90.5%
O=C1CC(SC(=Nc2ccccc2)Nc2ccccc2)C(=O)N1c1cccc2ccccc12 (stereo not drawn) | active: 120%
COc1cccc(C(CC(=O)NCc2ccco2)NS(=O)(=O)c2ccc(C)cc2)c1OC (stereo not drawn) | active: 99.7%
O=C(Nc1ccccc1)[C@@H]1[C@@H](CO)[C@@H]2Cn3c(ccc(C4=CCCCC4)c3=O)[C@@H]2N1Cc1cocn1 | inconclusive: 71.3%
CCCNC(=O)c1c(N)n(-c2cccc(OC)c2)c2nc3ccccc3nc12 | active: 106%

Structure (SMILES) | rescue of ATP level
Cc1cc(C)n(-c2nc3ccccc3nc2N2CCN(S(=O)(=O)c3ccc(F)c(C)c3)CC2)n1 | inconclusive: 67.5%
COc1ccccc1N(CC(=O)NC1CCCCC1)C(=O)Cn1nnc(-c2ccc(C)o2)n1 | inconclusive: 79.7%
Cc1c(C(=O)Nc2nnc(SCc3ccccc3Cl)s2)cccc1[N+](=O)[O-] | inconclusive: 72.1%
C[C@H]1CN([C@@H](C)CO)C(=O)c2cc(C#CC3CC3)cnc2O[C@@H]1CN(C)S(C)(=O)=O | inconclusive: 73.2%
COc1ccc(S(=O)(=O)Nc2ccc3c(c2)C(=O)N([C@@H](C)CO)C[C@H](C)[C@H](CN(C)Cc2ccc(C(F)(F)F)cc2)O3)cc1 | inconclusive: 70.7%
Cc1nnc(SCC(=O)Nc2cccc(C(F)(F)F)c2)n1Cc1ccco1 | inconclusive: 65.2%
O=C(C[C@@H]1CC[C@H]2[C@@H](COC[C@@H](O)CN2Cc2cccc(Cl)c2)O1)NCC1CCCCC1 | inconclusive: 71.9%
C[C@H](CO)N1C[C@H](C)[C@H](CN(C)S(=O)(=O)c2ccc(F)cc2)OCCCC[C@H](C)Oc2ccc(NS(C)(=O)=O)cc2C1=O | active: 105%
CC(=O)Nc1ccc(N2C(=O)CSC2c2cccc([N+](=O)[O-])c2)cc1 (stereo not drawn) | inactive: -1.32%
COc1ccc(CN(C)C[C@H]2Oc3ccc(NS(C)(=O)=O)cc3C(=O)N([C@@H](C)CO)C[C@H]2C)cc1 | inactive: -5.39%
CC(C)c1ccc(/C=C/C(=O)N2CCc3ccccc3C2)cc1 | inactive: -2.97%
O=C(COC(=O)c1cnccn1)c1ccc(Br)cc1 | inactive: -4.21%
C[C@H]1CN([C@@H](C)CO)C(=O)Cc2cc(NC(=O)CCC(F)(F)F)ccc2O[C@@H]1CN(C)C(=O)Nc1cccc2ccccc12 | inactive: -8.22%
c1ccc(OCCn2cnc3ccccc32)cc1 | inconclusive: 71.5%
COCc1cc(=O)[nH]c(SCC(=O)Nc2ccccc2)n1 | active: 102%
CCOC(=O)C1CCN(C(=O)COC(=O)CCOc2ccc(C)cc2)CC1 | inconclusive: 67.8%
COc1ccc(CN(C)C[C@@H]2Oc3ccc(NS(=O)(=O)c4ccc(OC)cc4)cc3CC(=O)N([C@H](C)CO)C[C@@H]2C)cc1 | inactive: 10.5%
COc1ccc(S(=O)(=O)Nc2ccc3c(c2)C(=O)N([C@H](C)CO)C[C@@H](C)[C@@H](CN(C)S(=O)(=O)c2ccc(F)cc2)OCCCC[C@H](C)O3)cc1 | active: 141%
COc1cccc(S(=O)(=O)N(C)C[C@@H]2Oc3ncc(C#CCC(C)C)cc3C(=O)N([C@@H](C)CO)C[C@H]2C)c1 | inconclusive: 53%
C[C@H](CO)N1C[C@H](C)[C@H](CN(C)C(=O)Nc2ccc(F)cc2)OCCCC[C@H](C)Oc2ccc(NC(=O)Cc3ccccc3)cc2C1=O | active: 107%
O=C(Nc1ccccc1Cl)N1C[C@@H]2[C@H](c3ccccc31)[C@@H](CO)N2Cc1ccccc1 | inconclusive: 66.4%
C[C@@H]1CN([C@H](C)CO)C(=O)Cc2cc(NS(=O)(=O)c3ccc(Cl)cc3)ccc2O[C@H]1CN(C)CC1CCCCC1 | active: 124%
Cc1ccc(C2=NOC3(CC(=O)N(c4ccccc4)C3=O)C2)cc1 (stereo not drawn) | active: 75.8%
COc1ccc(CN(C)C[C@@H]2Oc3ccc(NC(=O)Cc4ccccc4)cc3CC(=O)N([C@H](C)CO)C[C@H]2C)cc1 | inconclusive: 84.8%
O=C(C1CCN(S(=O)(=O)c2cc(Cl)ccc2Cl)CC1)N1CCCC1 | inconclusive: 71%

Structure (SMILES) | rescue of ATP level
C[C@@H]1CN([C@H](C)CO)C(=O)Cc2cc(NC(=O)CCCCCC(=O)Nc3ccccc3N)ccc2O[C@@H]1CN(C)CC1CCCCC1 | inconclusive: 90.6%
CCc1c(O)nc(SCC(=O)Nc2ccccc2OC)[nH]c1=O | inactive: -7.63%
C[C@@H]1CCCCO[C@@H](CN(C)CC2CCCCC2)[C@@H](C)CN([C@H](C)CO)C(=O)c2cc(NC(=O)NC3CCCCC3)ccc2O1 | inconclusive: 80.1%
CNC[C@@H]1Oc2ccc(NC(=O)Cn3cnnn3)cc2C(=O)N([C@H](C)CO)C[C@@H]1C | inactive: 49.2%
O=C(COc1ccccc1CNCc1ccccc1)Nc1ccccc1 | inconclusive: 74.6%
Cc1cc(NC(=O)c2ccc(Cl)c(S(=O)(=O)N3CCOCC3)c2)no1 | active: 128%
CCc1ccc(NC(=O)CCCNC(=O)Cn2cnc3sc(C)c(C)c3c2=O)cc1 | inactive: 4.29%
COC(=O)c1ccccc1NC(=O)c1ccccc1OC | active: 124%
CCOC(=O)N(C)C[C@@H]1OCc2cnnn2CCCC(=O)N([C@@H](C)CO)C[C@@H]1C | inactive: -2.21% and inactive: -6.52%
C[C@@H]1CCCCO[C@H](CN(C)C(=O)Cc2ccccc2)[C@@H](C)CN([C@@H](C)CO)C(=O)c2cc(NS(=O)(=O)c3cn(C)cn3)ccc2O1 | inconclusive: 68.9%
C[C@@H]1CN([C@H](C)CO)C(=O)c2cc(NS(C)(=O)=O)ccc2O[C@@H](C)CCCCO[C@@H]1CN(C)Cc1ccc(Cl)c(Cl)c1 | inconclusive: 75.6%
O=C(Nc1cccc(F)c1)C1CCN(C(=O)NCc2ccccc2)CC1 | inconclusive: 67.7%
C[C@H](CO)N1C[C@H](C)[C@@H](CN(C)S(=O)(=O)c2cccs2)Oc2ccc(NC(=O)CCCCCC(=O)Nc3ccccc3N)cc2C1=O | inactive: -13.5%
CCn1nc(C)c(/C=N/NC(=O)c2ccoc2C)c1C | inconclusive: 67.9%
CC(C)C#Cc1ccc2c(c1)O[C@@H](CN(C)C(=O)CC1CC1)[C@@H](C)CN([C@@H](C)CO)S2(=O)=O | inconclusive: 68.9%
Cc1ccc(NC(=O)CSCC(=O)Nc2ccc(N3CCOCC3)c(Cl)c2)cc1 | active: 121%
Cc1nnc(N/N=C/c2cccc(C(F)(F)F)c2)n1N | inconclusive: 3.03%
Cc1c(C(=O)Nc2ccccn2)oc2ccccc12 | inconclusive: 100%
O=C(C[C@@H]1CC[C@H]2[C@@H](COC[C@H](O)CN2S(=O)(=O)c2ccccc2)O1)Nc1ccccc1 | inactive: 6.81%
Cc1ccnc(SC2CC(=O)N(c3ccc(F)cc3)C2=O)n1 (stereo not drawn) | inactive: 0.658%
O=C(c1cncc(Br)c1)N1CCN(S(=O)(=O)c2ccc(Cl)cc2)CC1 | inactive: 3.49%
CCc1ccc2c(CN3CCC(C(=O)OC)CC3)cc(=O)oc2c1 | inconclusive: 25.9%
CCOC(=O)C(=O)Nc1ccccc1C(=O)NC(C)C | inconclusive: 90.4%
